Experimental data as given in the supplement of paper PMC3334620.
Whole data set: some 33,000 sequences, median “E-score (-0.5 to 0.5)” near -0.054, cut for the highest 2% near 0.39. The list shows a part of the results.

Target: Ylr278c (UniProt Q05854)
Test: PBM E-score (8-mer binding enrichment) (E-score (-0.5 to 0.5)); higher = stronger / more preferred TF binding; most listed sequences are background and not binding sites
Conditions: protein concentration: 200 nM; construct: GST-DNA-binding domain
Description: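 Universal 'all 10-mer' protein binding microarrays (Agilent AMADID 015681) probed with GST-tagged S. cerevisiae TFs (full-length or DBD) made by in vitro transcription/translation (PURExpress), about 100-200 nM. Bound TF was detected with fluorescent anti-GST. Each ungapped 8-mer (which stands for itself and its reverse complement) is scored by the PBM enrichment score (E-score), a modified Wilcoxon-Mann-Whitney statistic from -0.5 to +0.5, computed with the Universal PBM Analysis Suite. Scale: above 0.35 generally sequence-specific binding.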

Row | Sequence | PBM E-score
1 | AGCAAATC | 0.0215
2 | GGAGAGGA | -0.0154
3 | AGGGTCAC | -0.133
4 | CCAATCCG | 0.306
5 | GAGGGTTA | -0.181
6 | TAAATGTA | -0.154
7 | GCCGACCC | 0.175
8 | ACTGTTGC | 0.0649
9 | GAGTCAAA | 0.0637
10 | AGCTAAGA | -0.127
11 | ACGTCATC | -0.104
12 | CATTCTCG | 0.0695
13 | CCATGGGC | 0.0313
14 | ATTGATAC | 0.0983
15 | CACATAAA | -0.0718
16 | GGTGTGAC | -0.172
17 | CAACACTC | 0.133
18 | CGCCCATA | 0.0865
19 | TAGTCAGA | -0.194
20 | GCCGTGTA | 0.0697
21 | CGTCGTAG | 0.00558
22 | CGAGCGAA | 0.0708
23 | TTGCCCAA | -0.125
24 | GTCGAGAC | -0.00117

Row | Sequence | PBM E-score
25 | CCTTGACC | 0.0455
26 | GGCGAGAA | 0.15
27 | AGTCCGTG | 0.343
28 | CTGAACTA | -0.121
29 | GAGGGTCC | 0.173
30 | AACTCATG | -0.174
31 | AATTGCAG | -0.0839
32 | ACGGCACG | -0.0262
33 | CGTATGTA | -0.0945
34 | TACTCACA | -0.248
35 | CATGATCC | 0.177
36 | GCGCCGAA | 0.302
37 | ACCCAGCC | -0.203
38 | GGCGGTCA | 0.253
39 | TAGTTAAA | -0.106
40 | CCTACCTA | -0.185
41 | AAAGCCGA | 0.357
42 | CAGAGCCC | -0.125
43 | CCGTGGGA | -0.055
44 | ATCCCGAG | 0.308
45 | ATTAGGCC | -0.102
46 | GAGGAATA | 0.184
47 | CATGTTAA | 0.0539
48 | GCCGCGAC | 0.134

Row | Sequence | PBM E-score
49 | AATCATCG | 0.0946
50 | GGGCGACA | 0.114
51 | TAGAATGA | -0.248
52 | ACCAGTCC | 0.00728
53 | ACTTTTTG | -0.0651
54 | GTACTACA | -0.165
55 | AGCTACTA | -0.0384
56 | GACTTATC | 0.0155
57 | CACTTGAC | -0.161
58 | CGGTCCAC | -0.00962
59 | AAGAGCCG | 0.297
60 | GGGCACGA | -0.12
61 | GCCCCGGC | 0.259
62 | AGAGACGC | 0.153
63 | CGGTTGAA | 0.0521
64 | GCTATGCA | -0.228
65 | ATCGGAGG | 0.426
66 | ACATGCGG | 0.201
67 | AGTGGAGG | -0.0468
68 | GTACAGGA | 0.045
69 | ACGCCGTG | 0.217
70 | ACTGTAAT | -0.172
71 | ATTCTCAC | -0.0477
72 | CTAGAGCA | -0.23

Row | Sequence | PBM E-score
73 | ATCTACTC | 0.0592
74 | AACAGTGT | -0.268
75 | CGCGACAA | 0.106
76 | AGCCACAT | -0.289
77 | CCCATTTA | -0.184
78 | CACAAGCC | -0.154
79 | CGACGATC | 0.0483
80 | ACGTCACT | -0.0519
81 | CTCACTTC | -0.155
82 | GATTTGGC | -0.0757
83 | AGCATAGA | -0.211
84 | ATGCCCGA | 0.0368
85 | TAATATTA | 0.0599
86 | CCTCTCGC | -0.216
87 | ATCGCAAT | -0.00053
88 | CCACATAA | -0.0284
89 | CGGCGCAA | 0.214
90 | CGTCAAGA | -0.209
91 | TAGACCTA | -0.343
92 | CTTCTTTC | -0.136
93 | GCGCGAGA | 0.097
94 | GCTTAAGC | -0.0729
